Test results: US10993999B2, “Materials and methods for producing improved lentiviral vector particles” (IMMUNE DESIGN CORP., priority 2012, dated 2021)

System: HT1080 cells stably expressing the human DC-SIGN receptor
Test: Transduction of HT1080 cells stably expressing human DC-SIGN (GFP expression)
Description: 293T cells were transfected with four separate plasmids encoding the lentiviral genome, the Gag/Pol, Rev, and the Envelope, respectively, using polyethyleneimine (PEI). Five hours after transfection, mix+media was removed. Media was added back to the vessel along with the indicated amount of mannosidase inhibitor (i.e., DMNJ, kifunensine, and swainsonine). 48 hours later, supernatant (containing vector) was collected and filtered with a 0.45 μm filter. […] The parental HT1080 cells (lacking DC-SIGN), were used as controls, and were not transduced by any of the vectors. […] The results are shown in FIGS. 1A (HT1080 expressing DC-SIGN) and 1B (parental HT1080).
293T cells were transfected with the plasmids described in Example 1 using PEI. Five hours after transfection, mix+media was removed. Media was added back to the vessel along with the indicated amount of Kifunensine (μg/ml), or with 400 μg/ml of DMNJ. 48 hours later supernatant (containing lentiviral vector particles) was collected and filtered with a 0.45 μm filter. […] The parental HT1080 cells, which are not transduced by the vector, were used as controls. […] The results are shown in FIGS. 2A (HT1080 cells expressing DC-SIGN) and 2B (parental HT1080 cells).
The results are illustrated in FIG. 4.

SMILES: O=C1N[C@@H]2[C@@H](O)[C@@H](O)[C@H](O)[C@@H](CO)N2C1=O [kifunensine]
- kifunensine concentration in production medium matching particles produced with 400 μg/ml DMNJ in infecting DC-SIGN-expressing cells: 0.125 µg/mL
- kifunensine concentrations giving particles that infect DC-SIGN-expressing cells much more efficiently than 400 μg/ml DMNJ particles: exceeding 0.125 μg/ml
- transfection of cells expressing DC-SIGN by particles produced in presence of the inhibitor (kifunensine 1 μg/ml vs DMNJ 400 μg/ml or swainsonine 10 μg/ml in production medium): significantly better
- kifunensine concentration at which ability of particles to infect DC-SIGN-expressing cells peaks (titration of kifunensine): 0.25 µg/mL
